Measured values reported in paper PMC12480466.
Results are given in words; binding and its absence hold for the method and conditions named. In cells and extracts the contact can be indirect. Where a sequence is shown, tags or fusion partners need not be part of it.

By UniProt entry, the sequences of proteins in these tests, tags left out.
UniProt O94986: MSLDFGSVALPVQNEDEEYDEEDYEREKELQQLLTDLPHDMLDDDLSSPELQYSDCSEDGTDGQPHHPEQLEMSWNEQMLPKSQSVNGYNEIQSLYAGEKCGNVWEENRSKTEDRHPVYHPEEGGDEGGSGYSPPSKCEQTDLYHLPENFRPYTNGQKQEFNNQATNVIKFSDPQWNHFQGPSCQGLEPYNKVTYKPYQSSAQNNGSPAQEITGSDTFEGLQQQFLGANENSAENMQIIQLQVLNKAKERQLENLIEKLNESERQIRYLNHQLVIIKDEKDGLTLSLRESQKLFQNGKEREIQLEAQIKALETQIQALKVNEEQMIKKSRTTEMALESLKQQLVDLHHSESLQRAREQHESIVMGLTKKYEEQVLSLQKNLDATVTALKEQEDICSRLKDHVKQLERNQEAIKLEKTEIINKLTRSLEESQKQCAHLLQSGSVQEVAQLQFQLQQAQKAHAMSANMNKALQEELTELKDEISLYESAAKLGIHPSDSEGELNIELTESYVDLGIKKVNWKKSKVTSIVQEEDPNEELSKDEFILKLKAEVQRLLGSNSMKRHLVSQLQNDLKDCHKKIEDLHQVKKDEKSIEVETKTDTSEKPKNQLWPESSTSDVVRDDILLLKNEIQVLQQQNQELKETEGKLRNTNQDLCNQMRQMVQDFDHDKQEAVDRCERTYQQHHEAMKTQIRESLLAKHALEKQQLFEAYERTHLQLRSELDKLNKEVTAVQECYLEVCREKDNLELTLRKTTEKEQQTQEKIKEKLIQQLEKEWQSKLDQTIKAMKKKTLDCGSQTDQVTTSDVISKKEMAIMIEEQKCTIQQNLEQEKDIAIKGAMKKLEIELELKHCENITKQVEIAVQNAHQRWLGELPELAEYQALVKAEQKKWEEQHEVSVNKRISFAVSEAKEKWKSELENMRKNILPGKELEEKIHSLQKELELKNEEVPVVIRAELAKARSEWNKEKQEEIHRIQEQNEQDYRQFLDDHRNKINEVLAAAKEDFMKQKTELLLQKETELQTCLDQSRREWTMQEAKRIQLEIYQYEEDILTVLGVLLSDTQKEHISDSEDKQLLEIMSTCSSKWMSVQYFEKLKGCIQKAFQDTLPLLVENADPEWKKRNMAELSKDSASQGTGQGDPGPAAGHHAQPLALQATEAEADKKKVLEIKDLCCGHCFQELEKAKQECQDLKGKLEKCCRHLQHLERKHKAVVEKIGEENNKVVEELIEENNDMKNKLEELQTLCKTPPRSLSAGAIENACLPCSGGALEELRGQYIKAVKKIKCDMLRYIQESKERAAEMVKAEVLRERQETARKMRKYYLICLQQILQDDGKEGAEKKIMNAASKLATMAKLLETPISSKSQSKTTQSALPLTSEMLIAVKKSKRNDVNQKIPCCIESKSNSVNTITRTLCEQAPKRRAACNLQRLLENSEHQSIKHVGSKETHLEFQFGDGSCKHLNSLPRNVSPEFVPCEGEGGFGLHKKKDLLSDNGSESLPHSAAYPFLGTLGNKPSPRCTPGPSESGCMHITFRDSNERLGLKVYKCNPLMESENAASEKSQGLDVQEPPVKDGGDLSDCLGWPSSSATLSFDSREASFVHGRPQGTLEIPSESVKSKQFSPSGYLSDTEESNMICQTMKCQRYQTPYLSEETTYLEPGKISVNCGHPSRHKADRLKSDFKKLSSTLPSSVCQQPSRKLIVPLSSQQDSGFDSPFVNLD

Columns and labels:
Experiment in all cases: co-IP; lysates of HEK293T cells overexpressing 3×FLAG-TUFT1 only; partners blotted with their own antibodies; lysis buffer 150 mM NaCl, 50 mM HEPES, 1 mM MgCl2, 1 mM EGTA, 0.5% Triton X-100, pH 7.4; protein G-Sepharose, 4 °C
[1] = biological target: Cep152 (endogenous, HEK293T) (human (endogenous in HEK293T)) (UniProt O94986)
[2] = biological target: T1, PLK4 (endogenous, HEK293T) (human (endogenous in HEK293T)) (UniProt O00444)
T1 sequence: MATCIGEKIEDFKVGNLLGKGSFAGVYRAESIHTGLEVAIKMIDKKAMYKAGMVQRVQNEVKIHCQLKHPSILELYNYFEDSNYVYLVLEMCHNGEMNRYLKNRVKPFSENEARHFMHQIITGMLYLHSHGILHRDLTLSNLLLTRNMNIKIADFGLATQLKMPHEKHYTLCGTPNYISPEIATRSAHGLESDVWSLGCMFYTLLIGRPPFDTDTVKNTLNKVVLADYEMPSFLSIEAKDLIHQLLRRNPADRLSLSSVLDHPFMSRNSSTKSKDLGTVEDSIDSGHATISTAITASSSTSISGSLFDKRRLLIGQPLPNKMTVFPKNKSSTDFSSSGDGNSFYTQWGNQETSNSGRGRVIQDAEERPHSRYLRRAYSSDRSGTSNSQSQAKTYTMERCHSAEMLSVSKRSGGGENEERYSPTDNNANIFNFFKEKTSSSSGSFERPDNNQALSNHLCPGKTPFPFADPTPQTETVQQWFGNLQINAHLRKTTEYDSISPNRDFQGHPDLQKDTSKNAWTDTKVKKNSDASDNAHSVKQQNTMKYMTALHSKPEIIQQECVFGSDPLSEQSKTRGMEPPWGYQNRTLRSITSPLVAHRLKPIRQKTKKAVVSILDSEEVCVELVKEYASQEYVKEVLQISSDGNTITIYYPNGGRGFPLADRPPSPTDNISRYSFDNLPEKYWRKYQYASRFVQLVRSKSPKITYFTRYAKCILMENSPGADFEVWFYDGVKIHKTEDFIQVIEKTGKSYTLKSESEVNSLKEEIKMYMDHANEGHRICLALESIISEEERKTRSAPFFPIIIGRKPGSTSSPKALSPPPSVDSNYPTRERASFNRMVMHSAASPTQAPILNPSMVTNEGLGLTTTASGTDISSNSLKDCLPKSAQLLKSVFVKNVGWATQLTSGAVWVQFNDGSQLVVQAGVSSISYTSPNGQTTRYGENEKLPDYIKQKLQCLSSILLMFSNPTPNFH

[3] = biological target: T2, STIL (endogenous, HEK293T) (human (endogenous in HEK293T)) (UniProt Q15468)
T2 sequence: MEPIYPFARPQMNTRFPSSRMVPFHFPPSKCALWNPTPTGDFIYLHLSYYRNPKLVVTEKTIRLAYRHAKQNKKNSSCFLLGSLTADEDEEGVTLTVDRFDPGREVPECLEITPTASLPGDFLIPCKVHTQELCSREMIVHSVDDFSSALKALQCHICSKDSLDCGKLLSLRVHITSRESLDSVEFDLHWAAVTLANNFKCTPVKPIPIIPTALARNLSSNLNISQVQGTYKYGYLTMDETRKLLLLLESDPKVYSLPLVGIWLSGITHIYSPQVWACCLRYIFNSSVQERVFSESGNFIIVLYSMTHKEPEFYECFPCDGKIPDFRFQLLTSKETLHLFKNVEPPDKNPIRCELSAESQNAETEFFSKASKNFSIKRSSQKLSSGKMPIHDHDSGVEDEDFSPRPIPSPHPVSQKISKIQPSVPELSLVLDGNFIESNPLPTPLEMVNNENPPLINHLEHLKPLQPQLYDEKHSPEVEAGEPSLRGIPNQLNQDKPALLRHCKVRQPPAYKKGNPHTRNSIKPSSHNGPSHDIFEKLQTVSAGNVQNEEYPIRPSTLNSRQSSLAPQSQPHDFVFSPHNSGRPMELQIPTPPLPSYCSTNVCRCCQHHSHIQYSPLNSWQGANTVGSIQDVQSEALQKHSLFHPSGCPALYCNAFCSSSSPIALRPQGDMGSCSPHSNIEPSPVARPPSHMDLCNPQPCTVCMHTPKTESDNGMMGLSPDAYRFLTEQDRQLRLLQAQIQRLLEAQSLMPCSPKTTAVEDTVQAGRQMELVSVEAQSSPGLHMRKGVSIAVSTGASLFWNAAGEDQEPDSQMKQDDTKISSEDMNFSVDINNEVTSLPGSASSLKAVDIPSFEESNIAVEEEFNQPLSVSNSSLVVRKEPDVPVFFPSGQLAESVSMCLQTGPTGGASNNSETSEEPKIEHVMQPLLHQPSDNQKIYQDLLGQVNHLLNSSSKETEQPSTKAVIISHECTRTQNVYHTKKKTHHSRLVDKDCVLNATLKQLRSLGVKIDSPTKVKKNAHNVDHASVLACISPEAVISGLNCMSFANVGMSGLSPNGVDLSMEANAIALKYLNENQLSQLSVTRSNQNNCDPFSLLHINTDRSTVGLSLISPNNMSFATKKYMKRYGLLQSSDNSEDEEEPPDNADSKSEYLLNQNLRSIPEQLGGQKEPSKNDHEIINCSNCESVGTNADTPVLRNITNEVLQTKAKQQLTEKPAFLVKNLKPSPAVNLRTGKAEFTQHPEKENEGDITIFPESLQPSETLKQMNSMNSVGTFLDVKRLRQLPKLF

binding [1]: no binding | binding [2]: no binding | binding [3]: no binding
B1: 3×FLAG-TUFT1 (full-length, FL; WT) (protein, UniProt Q9NNX1-1 1-390)
chain: MNGTRNWCTLVDVHPEDQAAGSVDILRLTLQGELTGDELEHIAQKAGRKTYAMVSSHSAGHSLASELVESHDGHEEIIKVYLKGRSGDKMIHEKNINQLKSEVQYIQEARNCLQKLREDISSKLDRNLGDSLHRQEIQVVLEKPNGFSQSPTALYSSPPEVDTCINEDVESLRKTVQDLLAKLQEAKRQHQSDCVAFEVTLSRYQREAEQSNVALQREEDRVEQKEAEVGELQRRLLGMETEHQALLAKVREGEVALEELRSNNADCQAEREKAATLEKEVAGLREKIHHLDDMLKSQQRKVRQMIEQLQNSKAVIQSKDATIQELKEKIAYLEAENLEMHDRMEHLIEKQISHGNFSTQARAKTENPGSIRISKPPSPKPMPVIRVVET
